The text below walks through data of the RNAGym collection of RNA variant scans (doi:10.7554/elife.90254).

Read counts are not given, so values of variants with three or more changes are uncertain.

B1: LINE1-mini (parent)
chain: GGCAGAGCUCAACACAGCGUGGCAAAGUGGCUGUGGCUAGACUGCC

The variants in the data set derive from B1. Put plainly: self-cleavage, relative activity (ratio to wild type); higher = more cleavage; in vitro, sequencing; the parent is a self-cleaving ribozyme.
As to U34G U38G G40C G44A, the self-cleavage was found to be 0.07. Take A14U A41C C46U: the self-cleavage was 0.04.

With C10U A26G C37G G40U C46A, the self-cleavage turned out to be 0.05. Take G36C C37G A39G G44A: the self-cleavage turned out to be 0.04. As for G7A C13A C31U, the self-cleavage was 0.12.

Take A6C C10G G19A G35C G36A: the self-cleavage was 0.01. Then G5C A16U A25G A41C G44C C46U, with 0.01; and C15G C37G G40A, with 0.01; and U9G G27C U43C, with 0.03. C3G A24C A26C G30C A41C C45G: the self-cleavage came out at 0.05.

Turning to G1U G2A G5U A12G G33A, the self-cleavage turned out to be 0.01. As to G22U G29A G44C, the self-cleavage worked out at 0.16.

C13U U34C G36U: the self-cleavage was 0.11. G2A C15A A25U G30U: the self-cleavage came out at 0.32. For the variant G1U G22A C46G, the self-cleavage was found to be 0.07.

As for C8G C15U G33U C37G, the self-cleavage was found to be 0.05. Regarding A6C U34G G36A C46U, the self-cleavage is 0.04. With C10U G17U C23A G33C, the self-cleavage worked out at 0. On to C13U U32A C42U, for which the self-cleavage was 0.04.

For A4U G5A A11G G21C, the self-cleavage was found to be 0.03. Take A16C C23U U32G G35C G44U: the self-cleavage stood at 0.02. Consider G1A C10G A11C G35U A41C, for which the self-cleavage is 0.01. As for G2A A25C U32G, the figure is 0.12; as for G27U G30U A39U, 1.19; as for A6G C15A U34G, 0.03. With G1U A6U C23G U28G G33C, the self-cleavage stood at 0.04. On to G1C A6U G19U A41C, for which the self-cleavage worked out at 0.05. Then U9C A12G A39U, with 0.01; and A14U G35C C46A, with 0.07. On to A6G A24C A25U U28G, for which the self-cleavage was determined as 0.03.

On to G1C A4G A11G, for which the self-cleavage was determined as 0.01. A6C C10A U34C C42U: the self-cleavage is 0.07. With A4U C13A G17U G22C U43A, the self-cleavage was 0.07. In the case of G19C G22A A41C C46A, the self-cleavage was found to be 0.

For G29A G36U A41C C46U, the self-cleavage came to 0.02. For A4G G7U C23A C42G G44C, the self-cleavage came to 0.07. In the case of G33C U38G G44U, the self-cleavage worked out at 0.05. Then U20A A25G C31G, with 0.02; and A4U A6G U9A C23G, with 0.05.

G5A G21U A41U: the self-cleavage turned out to be 0.14. For the variant G2C G29U C37U C46A, the self-cleavage came to 0.06. With G22C C31G C37G, the self-cleavage amounted to 0.02. With G2C G27U C45U, the self-cleavage was 0.15. On to G29U A39U C46U, for which the self-cleavage came to 1.26. As for G1A G5A C10A C37A, the figure is 0.05.

As for G2U G5C G7A A12C C15A, the self-cleavage came out at 0.01.

A16G G44C C46G: the self-cleavage amounted to 0.05.

Take G7A U38G G44A: the self-cleavage came to 0.01. Turning to G5C G36U C45U, the self-cleavage came to 0.08. Regarding C8A A11G A12U, the self-cleavage came out at 0.02. Take C3A A4U A24C: the self-cleavage came out at 0.25. As for U28C C42G C45G, the figure is 0.03; as for A6G C8U G35A, 0.05.

As to C13A G22U C23G G44A, the self-cleavage was 0.13. Take G1C A16G C23G A39G C42A: the self-cleavage was 0.01.

Take G1U G5A A11U G27A C37U: the self-cleavage was determined as 0. In the case of C15U G22A G33C, the self-cleavage turned out to be 0.11. A4U G7A C31U: the self-cleavage was found to be 0.1. For A16C C23U C42U, the self-cleavage turned out to be 0.06. Then G33A A39C C45G, with 0.02; and A6U A16G G19A G29A, with 0.89; and C13A G35U C42U G44C, with 0.05.

A14U C15A C18U U28C G33U A41G: the self-cleavage was determined as 0.03.

Regarding C3U U20G G33A, the self-cleavage came out at 0.1. In the case of C8A G22U G27U U32C C37A, the self-cleavage came out at 0.03.

Take A16U G27A G30U: the self-cleavage came out at 0.11. Consider G7C G19C A26C, for which the self-cleavage stood at 0.01. Regarding G5C C10A C31U, the self-cleavage was 0.01.

As for A4C G5A A26U A39C, the self-cleavage turned out to be 0.24. Take C10U A16U G19C U43C: the self-cleavage was 0.

For the variant A16U G22A C45G, the self-cleavage turned out to be 0.06. As for A6C A16U C23G U28A G29A C37A, the figure is 0.08; as for C10U C13U G33C, 0.03. For C3G C13U A16C U28A G35C G40A G44U, the self-cleavage came out at 0.05. U28C U32A A41C: the self-cleavage amounted to 0.05.

Consider G22U C23G G40A G44U, for which the self-cleavage came out at 0.08. Consider G7A G22A U28G C45A C46A, for which the self-cleavage is 0.04. Consider G7A G17C U20C, for which the self-cleavage is 0.05. As to C13U C15G C23U G36U U38A, the self-cleavage stood at 0.01. As for G2C U9A C37G C42A, the self-cleavage was 0.09. In the case of A4U C8A A12U G17U, the self-cleavage came to 0.28. Turning to U9G C31G C37G G40A G44A, the self-cleavage was 0.02. As to G2U C13U G30A, the self-cleavage was found to be 0.04. A6U A11C C37U: the self-cleavage came out at 0.05. As for A39U A41U C45G, the figure is 0.36; as for C8G G22A G33C U38A C46G, 0.02. For C10A A12G A24U, the self-cleavage came to 0.11. Then C3G C10A C13U G27A U38A A41U, with 0.01; and G19A G29A C31U U38C G44C, with 0.01. As for A4G G27A U43C, the figure is 0.64; as for U9A G29A G35U, 1.34; as for A4G U9G U20A G27A G33U, 0.3. In the case of A16G G21A A25C C45U C46A, the self-cleavage turned out to be 0.02. G29U U43C G44C: the self-cleavage was determined as 0.03. With C10U U43C G44A, the self-cleavage came to 0.01. As for G21C C23A A26C G27C G44A C46A, the self-cleavage worked out at 0.06.

G7C A11C G30C: the self-cleavage is 0.03. Regarding A12G U38A A41G, the self-cleavage is 0.03. As for G19U G21A U34A G40C, the figure is 0.03; as for A4G G7U C8G C10A G19A, 0.01; as for C13G C18G C23A U32A G40C, 0.06. In the case of A6U G21U G29C, the self-cleavage came to 0.18. For G27U G29A A41C, the self-cleavage is 0.04.

Take G17U G21C G30A G33A U34C: the self-cleavage came out at 0.06. On to G2U U20G G21A, for which the self-cleavage is 0.1.

As to G2C C15A U20G U34A, the self-cleavage is 0.03. As for C3U A26C G29U G35A U38A, the self-cleavage was 0.03. Turning to C3G A4U C8A G19A, the self-cleavage turned out to be 0.88. With G36U C37G C46G, the self-cleavage stood at 0. For the variant C13G C23A A41C, the self-cleavage was found to be 0.04. As for A14G G17C C31U, the self-cleavage came to 0.01.

As to A6C A11C G35A C37G, the self-cleavage amounted to 0.02.

Regarding C15U G36U U43A G44A, the self-cleavage stood at 0.26.

Regarding C13U A26G U32A, the self-cleavage worked out at 0.09. A6C C31A C46G: the self-cleavage is 0.05. Take C15U C37G A41U G44C: the self-cleavage was 0.03. Turning to A14C G29U U43A C45A, the self-cleavage worked out at 0.01. As for C3G A4G C13A G29U C37A G40C, the self-cleavage was found to be 0.1. Regarding U20C C23U A25C A26U G36U C37U, the self-cleavage is 0.02. Regarding C18A C31A C46A, the self-cleavage was 0.15. Then G5A C13A C15G C37A C45A, with 0.02; and A26U U32A C37U, with 0.03. As for G21A G27C U34C, the figure is 0.1. As for C3U C8U G21U G40C, the figure is 0.09; as for A6U C13G A14C A25G G33A C42U, 0.01. As for C23U G30C C37U, the self-cleavage was 0.16. In the case of A12U G29A G33A U34C C42U, the self-cleavage came out at 0.05. For C10A C18U G36A G40C A41G C45A, the self-cleavage came out at 0.01. As for G5U C37G U38C, the self-cleavage came out at 0. With G17A G19U U20A A39U, the self-cleavage is 0.08.

Regarding C3U C15U C18U G33U, the self-cleavage turned out to be 0.14. Regarding G33A C42A U43G, the self-cleavage worked out at 0.07. For the variant G5A A26U U38A U43G C45G, the self-cleavage is 0.07. Then A6G C13U G21A C31U G35A, with 0.02. Then C15A U28A G40A, with 0.07; and G7A G19U G33U C42G, with 0.05; and A6U C31A C45G, with 0.04.

Turning to C18A G21A U32A G44U, the self-cleavage came out at 0.03.

With G5A C10A A14U G19A, the self-cleavage came out at 0.04. Take C3G C8G A12U A41U: the self-cleavage was found to be 0.05. As for A6U A24U C46A, the self-cleavage is 0.19. Consider A6C C10A G21A U28G, for which the self-cleavage came out at 0.01. In the case of C10A U28C U34A, the self-cleavage was 0.68.

Take A12G C18A G36A C45A: the self-cleavage worked out at 0.01.

For G17U C18U G36U, the self-cleavage worked out at 0.02.

For C18A G29U U32G G33U C37A, the self-cleavage came out at 0.05. Regarding C18A G36U G40C, the self-cleavage stood at 0.01.

In the case of A16U U28G C42U, the self-cleavage amounted to 0.05. As for C10G C13U U38A G44C, the figure is 0. For the variant C13A G21A C23U G35A, the self-cleavage came out at 0.05. As for A4G A12C A16C G27U G35U, the figure is 0.31; as for G21A G27A C37U A41C, 0.02. Consider C18A U28C G29U G36U C37U, for which the self-cleavage worked out at 0.01.

In the case of A6U C13U C37G A41U, the self-cleavage came to 0.03. For the variant C8A C13U C15G U32G G36A, the self-cleavage worked out at 0.08. Consider C13A A24U A39C, for which the self-cleavage worked out at 0.03. As for G2A A11U A24C G33U G36C, the figure is 0.03. Regarding A4G A26G U43C, the self-cleavage worked out at 1.91. Consider G17A C31A C46A, for which the self-cleavage worked out at 0.07. Take G5A G22U U34C A41G: the self-cleavage came out at 0.02.

A12G A16U G33U C45A: the self-cleavage amounted to 0.02. For G2C G27A G30A, the self-cleavage was 0.08. In the case of A11C G29A U38A G40A, the self-cleavage amounted to 0.01. In the case of C18A G22C C46A, the self-cleavage is 0.15. Take G5U A12U A41U: the self-cleavage is 0.04. On to A4C G5U G7C G22U G30U U34A C46U, for which the self-cleavage turned out to be 0.01. Take C8U U9A A12G C15U G21C G44A: the self-cleavage was 0.19.
